Results on 83 variants are retold here after the RNAGym collection of RNA variant scans (doi:10.1073/pnas.2313332121).

To fix the notation:
B1: TPR 5TU (parent)
chain: GGAUCUUCUCGAUCUAACAAAAAAGACAAAUCUGCCACAAAGCUUGAGAGCAUCUUCGGAUGCAGAGGCGGCAGCCUUCGGUGGCGCGAUAGCGCCAACGUUCUCAACUAUGACACGCAAAACGCGUGCUCCGUUGAAUGGAGUUUAUCAUG

Variants at the background level are over-represented here.

Variants of B1 are the subject of this series. Briefly: polymerase ribozyme fitness, log enrichment relative to wild type (log ratio); higher = more active; in vitro selection for triplet polymerase activity. The gist of the method: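 A single round of triplicate in vitro selection, including frozen incubation at −7 °C, was applied to PCR-built, transcribed mutant libraries of each subunit of a heterodimeric triplet polymerase ribozyme. Illumina sequencing of input and output libraries retained genotypes with ≥10 input reads and ≥1 read per output. Fitness is the base-2 logarithm of genotype enrichment divided by wild-type enrichment, from inverse-variance-weighted replicate averages.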
For C10G G83C U90G A91G, the “polymerase ribozyme fitness (log ratio)” value is not above -4.2.

Regarding C10A U13G G25C G34U U61A C63U G68C U77C C79A G86A, the “polymerase ribozyme fitness (log ratio)” value was not above -4.2.

Turning to C10U A17U C35U A60G G68A G80A C96U A98G, the “polymerase ribozyme fitness (log ratio)” value is not above -4.2.

With C10U U109G A142C C149A, the “polymerase ribozyme fitness (log ratio)” value is not above -4.2.

As to C10G A29U C95U C108A G117A G143C, the “polymerase ribozyme fitness (log ratio)” value is not above -4.2.

C10U A39G C54A A60U A66C U82A G84U A150C U151A: the “polymerase ribozyme fitness (log ratio)” value was not above -4.2.

With C10A G62A, the “polymerase ribozyme fitness (log ratio)” value was not above -4.2.

C10U G50U C95U: the “polymerase ribozyme fitness (log ratio)” value is -3.16.

Consider C10U G25U A40U C79U G84A A142C, for which the “polymerase ribozyme fitness (log ratio)” value is not above -4.2.

Turning to C10G C36G G65A C87A G112A C116G A138U U145C, the “polymerase ribozyme fitness (log ratio)” value was not above -4.2.

Turning to C10G C38U C69A A107U, the “polymerase ribozyme fitness (log ratio)” value was not above -4.2.

In the case of C10G U55A C69G C93U C103G C116A, the “polymerase ribozyme fitness (log ratio)” value was not above -4.2.

Take C10U G88C: the “polymerase ribozyme fitness (log ratio)” value is not above -4.2.

Regarding C10U C131A, the “polymerase ribozyme fitness (log ratio)” value was not above -4.2.

With C10A A52G G94C A150C, the “polymerase ribozyme fitness (log ratio)” value is not above -4.2.

On to C10U A12G A39G G70C G92C U135G U145G U148A, for which the “polymerase ribozyme fitness (log ratio)” value is not above -4.2.

For C10G G92U C116U, the “polymerase ribozyme fitness (log ratio)” value is not above -4.2.

C10G U13A A37C U44A C57G G88A A91C U102G C132G U135A: the “polymerase ribozyme fitness (log ratio)” value was not above -4.2.

As for C10U C43U A60G A73C U77G, the “polymerase ribozyme fitness (log ratio)” value is not above -4.2.

Regarding C10A C27U U45C G48A U55A A60G U102G G143C U146G, the “polymerase ribozyme fitness (log ratio)” value was not above -4.2.

For the variant C10G G11U U15C G84A G88U, the “polymerase ribozyme fitness (log ratio)” value is not above -4.2.

Take C10U A30G C87U U134A G143A U145G: the “polymerase ribozyme fitness (log ratio)” value was not above -4.2.

C10A C27G G46A C75A C96A: the “polymerase ribozyme fitness (log ratio)” value is not above -4.2.

Take C10A G42C A66C G94U G100C G133A A138C: the “polymerase ribozyme fitness (log ratio)” value was not above -4.2.

As for C10U C123U G141C, the “polymerase ribozyme fitness (log ratio)” value was -4.03.

Take C10G C36U A52G G94C: the “polymerase ribozyme fitness (log ratio)” value is not above -4.2.

For the variant C10U U15G A23U C43U U82C G92U U104C, the “polymerase ribozyme fitness (log ratio)” value was not above -4.2.

On to C10U U56A U78G C87G, for which the “polymerase ribozyme fitness (log ratio)” value was not above -4.2.

For C10U A12U G42A G67C G92U A120U G128A, the “polymerase ribozyme fitness (log ratio)” value was not above -4.2.

As for C10U C87A U139G A150G, the “polymerase ribozyme fitness (log ratio)” value was not above -4.2.

Regarding C10U G34A C57G C87A C95U C123U A137C, the “polymerase ribozyme fitness (log ratio)” value was not above -4.2.

Turning to C10G C35U A37U A41U C43U U55A G92U C132U, the “polymerase ribozyme fitness (log ratio)” value is not above -4.2.

For C10A A49G C76U G83U C129U G141A, the “polymerase ribozyme fitness (log ratio)” value was not above -4.2.

On to C10U A60U C63G A64C U90C C95G C103A A122G, for which the “polymerase ribozyme fitness (log ratio)” value is not above -4.2.

For the variant C10G U13G A17U A23U A29G A52G G59U C87A A97U, the “polymerase ribozyme fitness (log ratio)” value is not above -4.2.

Turning to C10U A16C A17C G70A A89G G94C C132U, the “polymerase ribozyme fitness (log ratio)” value is not above -4.2.

For the variant C10G C38A C85A C118U C149U, the “polymerase ribozyme fitness (log ratio)” value was not above -4.2.

As for C10G A73U C76A C85G, the “polymerase ribozyme fitness (log ratio)” value is not above -4.2.

Regarding C10U U53A C54U U55A C75G C105U G143U U145C U148A, the “polymerase ribozyme fitness (log ratio)” value was not above -4.2.

For C10U U55A G80A C87A G88C A137C G140A G143C U146G, the “polymerase ribozyme fitness (log ratio)” value is not above -4.2.

Take C10U A28G G50U C57U C75U C95U: the “polymerase ribozyme fitness (log ratio)” value is not above -4.2.

In the case of C10G A23U U31G C57A C87G C125U, the “polymerase ribozyme fitness (log ratio)” value was not above -4.2.

With C10A G62C G68A U82G C93A A97G C118A G143U, the “polymerase ribozyme fitness (log ratio)” value was not above -4.2.

Take C10U G83C C85A A89G C118G U135G: the “polymerase ribozyme fitness (log ratio)” value was not above -4.2.

Take C10U A16C G68A U77A: the “polymerase ribozyme fitness (log ratio)” value is not above -4.2.

As to C10G A16U C54U U56A G59A G88C C105G A110G A119U C123A U145G U148C, the “polymerase ribozyme fitness (log ratio)” value is not above -4.2.

Regarding C10U C27U U44G A91G C116G G141A, the “polymerase ribozyme fitness (log ratio)” value was not above -4.2.

On to C10A C85U G133C U134A U146G, for which the “polymerase ribozyme fitness (log ratio)” value was not above -4.2.

Turning to C10G G42U C63U C95A C123G, the “polymerase ribozyme fitness (log ratio)” value is not above -4.2.

Take C10U U44A U55A C87U G88C U102C G133C: the “polymerase ribozyme fitness (log ratio)” value was not above -4.2.

In the case of C10A U33A U78G U90A G140A, the “polymerase ribozyme fitness (log ratio)” value was not above -4.2.

Regarding C10G C35U G86U C99G, the “polymerase ribozyme fitness (log ratio)” value is not above -4.2.

Regarding C10G A21U U53A C93G G140C, the “polymerase ribozyme fitness (log ratio)” value was not above -4.2.

For the variant C10G A37C G50A C95U C99A G143C, the “polymerase ribozyme fitness (log ratio)” value is not above -4.2.

Consider C10U G50A U55G A91G G143C, for which the “polymerase ribozyme fitness (log ratio)” value is not above -4.2.

As for C10G C38U A41C A60G G74A, the “polymerase ribozyme fitness (log ratio)” value is not above -4.2.

Turning to C10U A22U C79A G83C A106U, the “polymerase ribozyme fitness (log ratio)” value is not above -4.2.

In the case of C10U U31G C85U C93A, the “polymerase ribozyme fitness (log ratio)” value was not above -4.2.

For the variant C10U G46A G92A G140A G141U, the “polymerase ribozyme fitness (log ratio)” value is not above -4.2.

As for C10A A66C G88U A137U U139C, the “polymerase ribozyme fitness (log ratio)” value is not above -4.2.

On to C10U A47C A52G U77G G94U C99U, for which the “polymerase ribozyme fitness (log ratio)” value is not above -4.2.

For C10U A21U C76G C85G C93A A98G, the “polymerase ribozyme fitness (log ratio)” value is not above -4.2.

As to C10U A12U A26G C35U, the “polymerase ribozyme fitness (log ratio)” value was not above -4.2.

C10U C35A A40U U44A C51U G59U G68C C87A G143U: the “polymerase ribozyme fitness (log ratio)” value is not above -4.2.

Take C10U C57G C72U C87U U90G A119C G126A: the “polymerase ribozyme fitness (log ratio)” value was not above -4.2.

As for C10G A16U G48A C69G U109C A110U, the “polymerase ribozyme fitness (log ratio)” value was not above -4.2.

On to C10U G133U, for which the “polymerase ribozyme fitness (log ratio)” value was not above -4.2.

With G11A A12C C93U A107U G143U, the “polymerase ribozyme fitness (log ratio)” value is not above -4.2.

As for C10U A40G, the “polymerase ribozyme fitness (log ratio)” value is -4.12.

C10A C27U A41C C57A G80C C85A A121G C123A: the “polymerase ribozyme fitness (log ratio)” value was not above -4.2.

On to C10U C38U A41C C95U G141A, for which the “polymerase ribozyme fitness (log ratio)” value was not above -4.2.

C10U A12C A41G G50C C93G C103U C123A U127C: the “polymerase ribozyme fitness (log ratio)” value is not above -4.2.

C10G G88C C96G: the “polymerase ribozyme fitness (log ratio)” value was not above -4.2.

In the case of C10U U13G U45A G46A G58C C63U G141U, the “polymerase ribozyme fitness (log ratio)” value was not above -4.2.

Regarding C10G A19U U33G G86A, the “polymerase ribozyme fitness (log ratio)” value was not above -4.2.

For C10G A40C A73G G83C G84A U144A U146C, the “polymerase ribozyme fitness (log ratio)” value was not above -4.2.

As to C10U U45A C54A G71C G136U, the “polymerase ribozyme fitness (log ratio)” value is not above -4.2.

For the variant C10U G42C G88U C105G G143U, the “polymerase ribozyme fitness (log ratio)” value is not above -4.2.

Consider C10U C32U A60G, for which the “polymerase ribozyme fitness (log ratio)” value was not above -4.2.

In the case of C10G G59A A91G G100A C131A U135G, the “polymerase ribozyme fitness (log ratio)” value was not above -4.2.

For the variant C10U U55G, the “polymerase ribozyme fitness (log ratio)” value was -3.19.

C10U U55A: the “polymerase ribozyme fitness (log ratio)” value was -2.91.

For the variant C10U U78C G80A C85A C105A, the “polymerase ribozyme fitness (log ratio)” value was not above -4.2.
